In all, about 310,000 compounds went through this assay and about 2,200 (0.71%) showed an effect of 50% or more. Effects have a minus sign here. The list shows a part of the results.
Target: human ether-à-go-go-related gene (hERG) potassium channel (human, UniProt Q12809)
Assay: primary screen, population patch clamp on CHO cells stably expressing hERG

Chain of human ether-à-go-go-related gene (hERG) potassium channel (Q12809 whole entry, looked up): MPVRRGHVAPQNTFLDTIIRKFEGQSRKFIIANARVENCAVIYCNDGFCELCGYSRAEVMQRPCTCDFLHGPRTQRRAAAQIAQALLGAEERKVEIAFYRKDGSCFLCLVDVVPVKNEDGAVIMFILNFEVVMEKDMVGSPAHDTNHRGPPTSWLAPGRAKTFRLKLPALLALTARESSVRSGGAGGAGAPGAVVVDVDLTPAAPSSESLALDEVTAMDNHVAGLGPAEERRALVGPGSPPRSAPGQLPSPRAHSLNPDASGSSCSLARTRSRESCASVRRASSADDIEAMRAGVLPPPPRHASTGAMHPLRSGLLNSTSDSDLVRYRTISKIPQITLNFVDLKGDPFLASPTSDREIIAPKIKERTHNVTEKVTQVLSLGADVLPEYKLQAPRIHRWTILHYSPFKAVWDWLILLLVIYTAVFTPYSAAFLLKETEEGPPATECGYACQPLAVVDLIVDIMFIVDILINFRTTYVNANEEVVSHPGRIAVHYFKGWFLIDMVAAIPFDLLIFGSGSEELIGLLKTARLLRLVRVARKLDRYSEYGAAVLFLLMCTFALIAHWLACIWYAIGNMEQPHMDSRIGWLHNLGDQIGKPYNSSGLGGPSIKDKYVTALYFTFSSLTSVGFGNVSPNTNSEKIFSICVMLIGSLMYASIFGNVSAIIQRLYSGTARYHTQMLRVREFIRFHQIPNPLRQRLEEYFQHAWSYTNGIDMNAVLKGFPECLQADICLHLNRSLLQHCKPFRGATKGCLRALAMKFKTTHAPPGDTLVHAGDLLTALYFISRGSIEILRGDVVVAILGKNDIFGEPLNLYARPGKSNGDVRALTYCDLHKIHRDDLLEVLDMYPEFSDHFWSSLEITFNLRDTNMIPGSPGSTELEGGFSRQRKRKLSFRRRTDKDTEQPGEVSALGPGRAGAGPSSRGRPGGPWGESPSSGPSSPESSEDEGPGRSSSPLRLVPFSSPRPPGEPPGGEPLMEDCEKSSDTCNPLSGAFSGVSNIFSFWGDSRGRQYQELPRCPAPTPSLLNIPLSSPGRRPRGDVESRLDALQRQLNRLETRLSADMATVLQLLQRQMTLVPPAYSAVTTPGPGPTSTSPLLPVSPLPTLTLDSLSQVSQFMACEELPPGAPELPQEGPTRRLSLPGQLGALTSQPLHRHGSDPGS

SMILES | hERG current change (%, negative = inhibition) at 1uM
CCOc1ccccc1NS(=O)(=O)c1ccc2c(c1)NC(=O)CCS2 | 11%
Cc1cc(C)c(S(=O)(=O)NCCc2ccncc2)c(C)c1 | 7.62%
COc1ccccc1NC(=O)Nc1ccncc1 | 18.4%
CC(C)c1csc(CN2CCCC(CCC(=O)NCc3ccccc3F)C2)n1 (stereo not drawn) | 3.75%
CN(C)C1(CNC(=O)CC(NC(=O)c2ccccc2Cl)c2ccccc2)CCCCC1 (stereo not drawn) | 1.14%
O=C(Nc1cccc(NC(=O)C2C3CC4OC(=O)C2C4C3)c1)c1ccccc1 (stereo not drawn) | 13.3%
COc1ccc2c(c1)cc(C(=O)O)n2C | -5.19%
O=C(CCCN1C(=O)/C(=C/c2ccco2)SC1=S)Nc1ccccc1C(=O)O | -1.06%
Cc1cc(C)nc(-n2ncc3c2CC(c2ccccc2)CC3=O)n1 (stereo not drawn) | 0.845%
Cc1[nH][nH]c(=O)c1/C=N/N1CCOCC1 | 12.4%
C/C(=N\NC(=O)c1c(Cl)c(C)nn1C)c1cccc(NC(=O)c2cccc(F)c2)c1 | 14%
Cc1noc(NS(=O)(=O)c2ccc(N/C=C/C(=O)c3ccncc3)cc2)c1C | -7.38%
O=C(c1cnccn1)N(c1ccccc1)C1(C(=O)NC2CCCC2)CCCCC1 | 8.37%
C=CCn1c(SCC(=O)Nc2ccc(N3CCOCC3)cc2)nc2ccccc2c1=O | 4.14%
COc1ccc(OC)c(/C=N/NC(=O)CSc2nnc(C)n2-c2ccccc2)c1 | 3.55%
CCOc1ccc(S(=O)(=O)N2CCC(C(=O)NCc3ccncc3)CC2)cc1Cl | 5.48%
Cc1ccc(C(=O)N(NC2=NS(=O)(=O)c3ccccc32)S(=O)(=O)c2ccc(C)cc2)cc1 | 6.87%
COc1cccc(C2N(c3ccc(Cl)c(Cl)c3)C(=O)C3CCCN32)c1OC (stereo not drawn) | 4.09%
O=C(Nc1ccc(S(=O)(=O)Nc2nccs2)cc1)c1cc(-c2ccccc2)nc2ccccc12 | 13%
Cn1c(C(=O)N2CCN(c3cccc(C(F)(F)F)c3)CC2)cc2sccc21 | 3.59%
O=C(COC(=O)c1cnccn1)c1ccc([N+](=O)[O-])cc1 | 7.66%
O=C1OC2CC3CC1CC(O)(C3)C2 (stereo not drawn) | 7.99%
O=C(O)CSc1cnc2ccccc2n1 | 1.35%
Cc1cccc(-n2c(O)c(C=NCCCN3CCOCC3)c3ccccc3c2=O)c1 | -7.46%
